In all, about 110,000 compounds were measured (“z-score”: median about -0.1, highest 2% from about 2 on). Some of the results follow. Activity calls are given as the source filed them.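 Rule for the calls: active = z-score in the third read window above 3 or below -3; inactive = the rest.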
Target: Metabotropic glutamate receptor 8 (Rattus norvegicus) (UniProt P70579)
Test: rat mGluR8 modulators via GIRK flux, primary screen, cell-based, thallium flux, HTS (AID 488969)
Conditions: HEK293 rat mGluR8, GIRK (G protein-gated inwardly rectifying potassium channel) thallium flux, FluoZin2; at 10 µM; stronger effect = higher value; submaximal glutamate (EC20) added with thallium

Sequence of UniProt P70579 (P70579 whole entry, looked up): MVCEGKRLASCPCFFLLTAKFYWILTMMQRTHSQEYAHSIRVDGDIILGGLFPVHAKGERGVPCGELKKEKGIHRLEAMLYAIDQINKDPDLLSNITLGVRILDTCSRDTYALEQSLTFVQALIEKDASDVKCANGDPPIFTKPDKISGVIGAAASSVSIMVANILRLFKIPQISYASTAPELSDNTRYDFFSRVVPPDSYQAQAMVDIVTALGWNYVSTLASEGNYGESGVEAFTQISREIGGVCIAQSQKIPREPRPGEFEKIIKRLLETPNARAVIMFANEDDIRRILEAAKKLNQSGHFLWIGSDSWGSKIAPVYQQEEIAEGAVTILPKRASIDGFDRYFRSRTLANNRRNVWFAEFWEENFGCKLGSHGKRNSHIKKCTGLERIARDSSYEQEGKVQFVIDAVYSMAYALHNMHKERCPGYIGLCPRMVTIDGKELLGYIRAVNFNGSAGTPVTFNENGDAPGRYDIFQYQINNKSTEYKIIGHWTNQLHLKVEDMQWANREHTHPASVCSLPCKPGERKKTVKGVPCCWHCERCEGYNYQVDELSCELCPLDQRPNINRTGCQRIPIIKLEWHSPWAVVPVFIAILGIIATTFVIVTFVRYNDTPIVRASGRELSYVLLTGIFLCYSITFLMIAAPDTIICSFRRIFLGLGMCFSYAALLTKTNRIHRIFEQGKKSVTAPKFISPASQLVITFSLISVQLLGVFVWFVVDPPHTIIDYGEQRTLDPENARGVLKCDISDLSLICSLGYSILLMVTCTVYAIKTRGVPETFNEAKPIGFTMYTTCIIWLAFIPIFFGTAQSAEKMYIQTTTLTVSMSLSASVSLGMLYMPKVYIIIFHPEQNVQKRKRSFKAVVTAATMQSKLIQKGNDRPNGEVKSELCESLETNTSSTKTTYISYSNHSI

SMILES | z-score
Cc1ccc(-n2c(SCC(=O)Nc3cccc(S(N)(=O)=O)c3)nc3ccccc32)cc1 | 0.106
FC(F)(F)c1nc2ccccc2nc1N/N=C/c1ccc(Cl)cc1 | -0.227
CCN1CCN(Cc2cc(=O)oc3ccc(Cl)cc23)CC1 | -0.503
CCOC(=O)C(C)Oc1cccc2c(=O)n(CC(=O)N3CCc4ccccc43)ccc12 (stereo not given) | -0.345
CCS(=O)(=O)N1CCN(CC2CC3C=CC2C3)CC1 (stereo not given) | -0.0203
COC(=O)c1ccc(NC(=S)NCCc2ccccc2)cc1 | 0.0302
Cc1ccnc(NS(=O)(=O)c2ccc(NC(=O)Cc3cccs3)cc2)n1 | 0.142
COc1ccc(-c2oc3ccccc3c(=O)c2OC(=O)c2ccc(C)cc2)cc1 | 0.707
O=C(COc1ccc(Cl)cc1Cl)Nc1c(-c2cccs2)nc2ccccn12 | -0.0767
Cc1onc(-c2ccccc2)c1C(=O)Nc1ccc2c(c1)OCO2 | -0.564
O=C(Nc1ccccc1)N(CCN1CCOCC1)Cc1ccccc1F | 0.227
CCOc1cc(C(=O)OC(C)C(=O)Nc2ncc(Cl)cc2Cl)ccc1OCC(=O)N1CCOCC1 (stereo not given) | 0.507
O=C(NC(=S)NCC1CCCO1)c1cccs1 (stereo not given) | 0.35
COC(=O)C1CCN(c2cc(=O)n(Cc3ccc(F)cc3)c(=O)[nH]2)CC1 | -0.228
CNC(=S)Nc1cccc2[nH]ncc12 | 0.303
CC1(C)Oc2ccc3ccc(=O)oc3c2C(N2CCCCC2)C1O (stereo not given) | 0.898
Cc1cccc(NC(=O)CSc2nc3nc4c(cc3c(=O)n2-c2ccccc2)CCCC4)c1 | -0.318
CC(C)C(NC(=O)CSCc1ccc([N+](=O)[O-])cc1)C(C)C | -0.524
Fc1ccc(Oc2cc(N3CCOCC3)nc(-c3ccccc3)n2)c(F)c1 | -0.112
COc1ccc2c(c1OC)C(=O)N1c3ccccc3C(=O)N(c3ccc(F)cc3)C21 (stereo not given) | -0.452
CCC(C)OC(=O)c1cc(C)nc2c(Br)cc(Br)cc12 (stereo not given) | 0.0924
Cc1c(C(Nc2ccccn2)c2ccc(Cl)cc2)c(=O)n(-c2ccccc2)n1C (stereo not given) | -1.31
O=C1NC2=C(C(=O)c3ccccc32)C(c2ccccc2)N1 (stereo not given) | -0.485
O=C(NCc1cccnc1)/C(=C/c1ccc(-c2ccc(Cl)cc2)o1)S(=O)(=O)c1ccccc1 | -0.0548

SMILES | z-score
N#Cc1ccc(-c2ccccc2)nc1SCC(=O)c1cccc(Cl)c1 | -0.211
COc1cc(C2C(C#N)=C(N)Oc3c2ccc2ccccc32)ccc1OCC(=O)Nc1ccc(C)cc1 (stereo not given) | -0.256
Cc1c(-c2cccc(NC(=O)c3cccs3)c2)nc2ncccn12 | -0.526
CCCC(=O)Nc1cccc(NC(=S)NC(=O)C(C)Oc2ccc(Cl)cc2Cl)c1 (stereo not given) | -0.0105
O=C1OC(c2ccccc2)C2(CCCC2)C(=O)C12CCCC2 (stereo not given) | -0.175
CO/N=C(/CNC(=O)c1ccccc1Cl)c1ccc(Cl)cc1 | -0.171
Nc1ccc(C(=O)Nc2ccccc2C(=O)O)cc1 | 0.886
Nc1c(C(=O)C2CC2)sc2nc(-c3cccs3)cc(C(F)(F)F)c12 | 0.0123
CCCc1nnc(NC(=O)Cn2c(=O)oc3cc(Br)ccc32)s1 | -0.559
CC(=O)Nc1cc(C(=O)NCc2ccco2)ccc1Sc1ccc(C)cc1 | -0.055
Cc1ccc(-c2nc(SCC(=O)NCCN3C(=O)CSC3=O)[nH]c2-c2ccc(C)cc2)cc1 | 0.00784
N#CC1(Cc2ccc(Cl)cc2)c2ccccc2C=CN1C(=O)c1ccccc1 (stereo not given) | -0.14
O=C(NCCCn1ccnc1)c1ccc(S(=O)(=O)N2CCCCCC2)cc1 | 0.0814
Cc1cccc(CN2CCN(CC(=O)NCc3ccc(F)cc3)C2=O)c1 | 0.323
CS(=O)(=O)N1CCN(C(=O)C(Sc2ccccc2)c2ccccc2)CC1 (stereo not given) | -0.0501
Cc1ccc(OC(=O)COc2ccccc2C)c(-n2nc3ccccc3n2)c1 | -0.295
Cc1ccc(-n2nnnc2SCC(=O)N2CCCCC2)cc1 | 0.332
Cc1ccc(S(=O)(=O)C2(C(=O)N3CCCCC3C)CC2)cc1 (stereo not given) | 0.622
CN(C)CCCNC(=O)CCc1nc2ccccc2c(=O)[nH]1 | -0.157
CCSc1cc(N2CCCC2)nc(-c2ccccc2Cl)n1 | -0.31
CCOC(=O)c1c(C)oc2ccc(O)c(CN3CCCCC3)c12 | active: 3.52
CC1(C)Cc2c(sc3nc(SCC(=O)NCc4ccco4)n(-c4ccccc4)c(=O)c23)CS1 | -0.145
Cc1cc(C)c(S(=O)(=O)NCCn2c(C)cc3ccccc32)c(C)c1 | 0.132
CC(=O)Nc1ccn(Cc2c(F)cccc2Cl)n1 | 0.193

SMILES | z-score
COc1ccccc1C(=O)N/C(=C/c1ccccc1)C(=O)NC(CCSC)C(=O)O (stereo not given) | -0.217
CC(=O)N/C(=C/c1ccccc1)C(=O)NC(Cc1ccccc1)C(=O)O (stereo not given) | 0.151
CSCCC(NC(=O)c1ccccc1)C(=O)Nc1ccc(C)cc1 (stereo not given) | -0.151
Cc1ccc(CNCc2cccnc2)cc1 | -0.18
COc1ccc(C(=O)N=c2sc3c(C)ccc(OC)c3n2C)cc1 | -0.723
COc1ccc(/C=C2\CCCC3C2=NN(C(=O)c2scnc2C)C3c2ccc(OC)cc2)cc1 (stereo not given) | -0.049
Cc1cc(/C=C(/C#N)C(=O)O)c(C)n1CCC(C)C | 0.00791
CCOC(=O)c1c(C)n(-c2ccc(C)cc2)c2c(CC(C)=O)c(Br)c(OC)c(O)c12 | -0.0818
O=C1c2cccc3cccc(c23)C(=O)N1c1ccncc1 | 0.117
Cc1ccccc1NC(=O)C(C)c1ccc(-c2ccccc2)c(F)c1 (stereo not given) | 0.231
CCOC(=O)c1nc(N)c(=O)n(-c2ccc(C)cc2)n1 | 1.41
CC(=O)c1c(N2CCOCC2)nc(=S)n(-c2ccccc2)c1C | 0.135
COc1ccc(C2C(C(=O)c3cccs3)=C(O)C(=O)N2c2nnc(C)s2)cc1OC (stereo not given) | 0.279
O=C(COc1ccc(C(=O)c2ccc(F)cc2)cc1)NCc1ccc(F)cc1 | -0.24
Cc1sc2c(c1C)c(=O)nc1scc(CC(=O)O)n12 | 0.0284
CCOC(=O)Cn1nc(C)c2c1CCCC2=O | 0.159
COCC(=O)Nc1ccc(C(C)C)cc1 | -0.217
O=C(Nc1cccc(NC(=O)c2ccccc2[N+](=O)[O-])n1)c1ccccc1[N+](=O)[O-] | -0.629
CC(=O)NCCNC(=O)[C@H](Cc1ccccc1)NC(=O)c1cccs1 | 0.2
Cc1cc(NC(=S)Nc2ccccc2)ccc1Br | 0.304
O=C(OC(C(=O)NCc1cccs1)c1ccccc1Cl)c1ccco1 (stereo not given) | -0.793
COc1cc(C)c(S(=O)(=O)N2CCOCC2)cc1C | 0.136

Reference: PubChem BioAssay AID488969 (Vanderbilt High Throughput Screening Facility, 2010)
